Measurements taken from PMC4336329 (PLoS ONE, 2015).
In all, about 310,000 compounds went through this assay and about 14,000 (4.5%) showed an effect of 50% or more. Effects have a minus sign here. Some of the results follow.

These molecules were tested against human ether-à-go-go-related gene (hERG) potassium channel (human, UniProt Q12809) (assay: primary screen, population patch clamp on CHO cells stably expressing hERG).
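Also: peak tail current of the secondary pulse compared with the same well before compound.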

Sequence of human ether-à-go-go-related gene (hERG) potassium channel (Q12809 whole entry, looked up): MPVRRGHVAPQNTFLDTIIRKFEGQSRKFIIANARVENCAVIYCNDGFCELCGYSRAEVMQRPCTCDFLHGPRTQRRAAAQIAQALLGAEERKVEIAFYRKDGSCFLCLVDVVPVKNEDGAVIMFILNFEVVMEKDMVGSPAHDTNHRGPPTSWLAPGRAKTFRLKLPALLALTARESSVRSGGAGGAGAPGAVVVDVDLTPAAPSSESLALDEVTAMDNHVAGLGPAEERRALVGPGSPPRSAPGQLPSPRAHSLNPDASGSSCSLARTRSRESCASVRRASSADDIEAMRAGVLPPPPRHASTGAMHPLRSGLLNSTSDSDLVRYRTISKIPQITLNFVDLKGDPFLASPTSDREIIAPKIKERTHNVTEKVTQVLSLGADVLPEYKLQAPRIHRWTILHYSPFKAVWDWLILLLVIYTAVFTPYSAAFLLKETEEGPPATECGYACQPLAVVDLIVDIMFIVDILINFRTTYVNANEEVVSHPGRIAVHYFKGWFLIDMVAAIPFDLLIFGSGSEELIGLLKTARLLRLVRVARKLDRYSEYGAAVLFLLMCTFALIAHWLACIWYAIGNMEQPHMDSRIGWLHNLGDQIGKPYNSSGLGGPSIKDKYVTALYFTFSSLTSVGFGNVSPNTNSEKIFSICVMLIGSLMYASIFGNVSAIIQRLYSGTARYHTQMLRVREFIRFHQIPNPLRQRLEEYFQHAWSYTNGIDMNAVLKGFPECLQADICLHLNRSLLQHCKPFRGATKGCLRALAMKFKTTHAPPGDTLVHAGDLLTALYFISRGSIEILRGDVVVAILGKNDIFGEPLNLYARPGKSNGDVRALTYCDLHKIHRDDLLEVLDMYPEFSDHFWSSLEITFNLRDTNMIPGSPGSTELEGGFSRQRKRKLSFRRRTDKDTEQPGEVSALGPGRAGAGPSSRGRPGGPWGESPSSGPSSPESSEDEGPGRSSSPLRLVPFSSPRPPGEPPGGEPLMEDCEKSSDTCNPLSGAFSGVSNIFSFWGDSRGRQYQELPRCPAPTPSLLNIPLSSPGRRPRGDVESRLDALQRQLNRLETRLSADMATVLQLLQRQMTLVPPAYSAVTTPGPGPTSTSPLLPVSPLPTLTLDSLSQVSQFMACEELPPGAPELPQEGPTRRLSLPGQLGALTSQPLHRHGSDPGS

| Structure (SMILES) | hERG current change (%, negative = inhibition) at 10uM [%] |
| --- | --- |
| CC1(c2ccc(Cl)cc2)NC(=O)N(CC(=O)Nc2ccc(N3CCCCC3)cc2)C1=O (stereo not shown) | 6.47 |
| O=C(COC(=O)/C=C/c1cccc(Br)c1)NCc1ccco1 | 8.59 |
| CC(c1ccccc1)N1CC(C(=O)NC2CCCC2)CC1=O (stereo not shown) | -34.3 |
| COc1cc(/C=N/NC(=O)c2ccc(CN3C(=O)c4cccc5cccc3c45)cc2)cc(OC)c1O | 1.25 |
| CN(C)CCN(C(=O)c1ccc2c(c1)OCCO2)c1nc2c(Cl)cccc2s1.Cl | -59.3 |
| Cc1ccccc1OCC(=O)N1CCc2ccccc2C1 | 0.601 |
| Cc1ccc(NC(=O)C2=NNC(=O)CC2)cc1F | 6.29 |
| CCn1c(=O)c([N+](=O)[O-])c(NCCN(C)C)c2ccccc21 | 18.2 |
| CCOC(=O)CN1N=C(/C=C/c2ccc(C(C)C)cc2)CCC1=O | -3.53 |
| O=C(N/N=C/c1cccc([N+](=O)[O-])c1)c1cc(-c2ccc3c(c2)OCO3)n[nH]1 | 3.15 |
| CN(C)c1cc(-c2cccc([N+](=O)[O-])c2)oc(=O)c1Cl | 9.17 |
| OC[C@H]1OC(O)[C@@H](O)[C@@H](O)[C@@H]1O (stereo partly shown) | 3.37 |
| O=C(NC1(C(F)(F)F)NC(=O)N(C2CCCCC2)C1=O)C1CC1 (stereo not shown) | -0.163 |
| Cc1[nH]c2ccccc2c1C(=O)C(=O)N1c2ccccc2CC1C (stereo not shown) | -18.6 |
| COc1ccc(NC(=S)N(CCCN2CCOCC2)Cc2ccco2)cc1 | -7.89 |
| COC(=O)CC1C(=O)NCCN1C(=S)NC(=O)c1ccccc1[N+](=O)[O-] (stereo not shown) | -5.29 |
| Cc1ccc(S(=O)(=O)NC(=O)COc2ccc([N+](=O)[O-])cc2)cc1 | 4.55 |
| COc1cc(OC)cc(-c2nn[nH]n2)c1 | 6.92 |
| CCc1c(C)nc(N)n2c(SCC(=O)N3CCCC(C)C3)nnc12 (stereo not shown) | -10.3 |
| COc1cc(S(=O)(=O)n2nnc3ccccc32)c(OC)cc1Cl | -1.71 |
| Cc1ccc(F)c(NC(=O)CCc2ccccc2)c1 | 13 |
| CC(C)c1ccc(NC(=O)c2ccc(Br)o2)cc1 | 3.82 |
| O=C(CSc1ccc2c(c1)OCCO2)Nc1cccc(S(=O)(=O)N2CCCCC2)c1 | -7.5 |
| CN(c1ccc(C(=O)Nc2cccc(O)c2)cc1)S(=O)(=O)c1ccccc1 | -22.1 |
| COc1ccc(CC(=O)NCC(=O)N/N=C(/C)c2ccco2)cc1 | -3.58 |
